Results: the supplement of paper PMC7826260
The other results are listed elsewhere or left out. Viral Rep nickase domains cut single-stranded DNA in vitro for 1 h at 37 °C with 3 µM enzyme; only the middle of the 90-letter strands is printed. Values are log2 of uncut reads against the no-enzyme pool; more negative means more cut, near 0 not cut, and no call is made. Counts are relative to all reads; uncut strands gain when others are lost, and binding without cutting may add a little.

How the values were obtained:
Assay in all cases: uncleaved DNA left, log2 of reads against the no-enzyme library (log2 ratio); higher = less cleavage (more negative = more Rep cleavage of the k-mer); sequences stand for … in CTCGTCCG…ACCGGAGA
[1] = system: T1, Rep nickase domain of Muscovy duck circovirus
T1 sequence (protein, residues 1-111, tag omitted): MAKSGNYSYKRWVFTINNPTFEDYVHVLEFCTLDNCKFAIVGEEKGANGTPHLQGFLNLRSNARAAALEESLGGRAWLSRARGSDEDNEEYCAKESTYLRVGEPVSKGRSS
Method: (§1)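 A pool of 90-nt single-stranded DNAs with seven random bases just before the constant AC of the nick site (name = the seven bases) was cut by 3 µM recombinant His6-SUMO-tagged Rep nickase domain (300 nM DNA, 50 mM HEPES pH 8.0, 50 mM NaCl, 1 mM MnCl2, 1 h, 37 °C, three replicates). Uncut DNA was amplified and sequenced.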

[2] = system: T2, Rep nickase domain of banana bunchy top virus
T2 sequence (protein, residues 1-94, tag omitted): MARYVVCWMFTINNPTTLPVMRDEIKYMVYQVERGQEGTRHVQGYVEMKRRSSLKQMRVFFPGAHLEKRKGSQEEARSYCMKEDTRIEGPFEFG
Method: as §1

[3] = system: T3, Rep nickase domain of cabbage leaf curl virus
T3 sequence (protein, residues 1-116, tag omitted): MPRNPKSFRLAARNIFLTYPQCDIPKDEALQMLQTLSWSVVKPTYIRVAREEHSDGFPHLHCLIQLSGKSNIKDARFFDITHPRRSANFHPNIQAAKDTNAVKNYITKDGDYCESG
Method: as §1

[4] = system: T4, Rep nickase domain of chickpea chlorotic dwarf virus
T4 sequence (protein, residues 1-124, tag omitted): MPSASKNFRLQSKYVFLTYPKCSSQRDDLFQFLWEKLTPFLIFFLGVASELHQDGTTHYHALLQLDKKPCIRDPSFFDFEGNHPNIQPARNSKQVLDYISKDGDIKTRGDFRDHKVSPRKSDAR
Method: as §1

[5] = system: T5, Rep nickase domain of faba bean necrotic yellows virus
T5 sequence (protein, residues 1-98, tag omitted): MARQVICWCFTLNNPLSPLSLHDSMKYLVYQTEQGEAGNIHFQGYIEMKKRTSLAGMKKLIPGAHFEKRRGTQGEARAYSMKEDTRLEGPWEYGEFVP
Method: as §1

[6] = system: T6, Rep nickase domain of maize striate mosaic virus
T6 sequence (protein, residues 1-117, tag omitted): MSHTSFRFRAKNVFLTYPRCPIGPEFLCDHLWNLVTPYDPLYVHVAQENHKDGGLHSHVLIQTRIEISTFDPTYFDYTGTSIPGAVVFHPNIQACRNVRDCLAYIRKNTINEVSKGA
Method: as §1

[7] = system: T7, Rep nickase domain of porcine circovirus 2
T7 sequence (protein, residues 2-116, tag omitted): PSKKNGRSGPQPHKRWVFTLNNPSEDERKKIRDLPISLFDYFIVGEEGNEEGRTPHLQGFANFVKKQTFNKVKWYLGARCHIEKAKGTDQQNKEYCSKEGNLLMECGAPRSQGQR
Method: as §1

[8] = system: T8, Rep nickase domain of tomato golden mosaic virus
T8 sequence (protein, residues 1-124, tag omitted): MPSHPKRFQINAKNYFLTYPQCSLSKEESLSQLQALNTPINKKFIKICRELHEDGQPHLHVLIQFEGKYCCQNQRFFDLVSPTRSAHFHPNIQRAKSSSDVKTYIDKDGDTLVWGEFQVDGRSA
Method: as §1

[9] = system: T9, Rep nickase domain of tomato yellow leaf curl virus
T9 sequence (protein, residues 1-136, tag omitted): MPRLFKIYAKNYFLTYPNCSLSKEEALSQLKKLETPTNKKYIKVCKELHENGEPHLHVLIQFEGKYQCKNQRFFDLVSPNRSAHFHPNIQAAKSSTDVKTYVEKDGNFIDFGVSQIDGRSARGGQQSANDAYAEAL
Method: as §1

[10] = system: T10, Rep nickase domain of wheat dwarf virus
T10 sequence (protein, residues 1-137, tag omitted): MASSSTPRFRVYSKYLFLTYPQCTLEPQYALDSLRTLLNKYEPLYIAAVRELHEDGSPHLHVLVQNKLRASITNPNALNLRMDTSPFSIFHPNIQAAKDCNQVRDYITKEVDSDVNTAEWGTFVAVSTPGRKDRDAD
Method: as §1

Sequence | uncleaved DNA left (log2) [1] | uncleaved DNA left (log2) [2] | uncleaved DNA left (log2) [3] | uncleaved DNA left (log2) [4] | uncleaved DNA left (log2) [5] | uncleaved DNA left (log2) [6] | uncleaved DNA left (log2) [7] | uncleaved DNA left (log2) [8] | uncleaved DNA left (log2) [9] | uncleaved DNA left (log2) [10]
TGAACAG | -0.00246 | 0.0102 | -0.365 | -0.522 | -0.0624 | -0.868 | 0.0439 | -0.00882 | -0.0207 | 0.0337
CCGCCAA | -0.0849 | -0.153 | -0.0318 | -0.334 | -0.0303 | -0.65 | -0.249 | -0.126 | -0.126 | -0.089
CCCTCGT | -0.0242 | -0.0585 | -0.366 | -0.84 | 0.156 | -0.834 | -0.203 | -0.0757 | -0.0382 | -0.0621
CTTCCAA | 0.0403 | 0.0197 | 0.0818 | -0.351 | 0.0505 | -0.534 | -0.176 | -0.075 | 0.0774 | 0.0806
GTTGGCC | -0.155 | -0.0622 | 0.132 | 0.878 | -0.0839 | 1.02 | -0.000895 | -0.145 | -0.0867 | -0.00171
CGAGAGG | 0.0638 | 0.192 | 0.193 | 0.794 | 0.0958 | 0.619 | 0.214 | 0.231 | 0.22 | 0.184
AACACGG | -0.0833 | -0.0646 | 0.356 | 1.24 | 0.00175 | 1.04 | 0.0557 | 0.103 | -0.0364 | -0.0342
CAAATGG | 0.0906 | -0.0513 | -0.24 | -0.158 | 0.0806 | -0.936 | 0.202 | 0.0675 | 0.0419 | 0.0848
TCTTTTG | -0.0543 | -0.155 | -0.409 | -0.662 | -0.162 | -1.08 | -0.101 | -0.159 | -0.144 | -0.213
TGACGTC | -0.015 | 0.0191 | 0.225 | 0.36 | 0.0329 | 0.642 | 0.00258 | 0.0015 | 0.00164 | 0.0613
TCAGTCC | 0.00271 | 0.0764 | 0.304 | -0.14 | -0.0259 | 0.282 | 0.0295 | 0.0528 | -0.0453 | 0.0438
TACGTAG | 0.219 | -0.0397 | -0.57 | -0.936 | 0.091 | -0.968 | 0.254 | 0.0819 | 0.112 | -0.0145
GCGACCC | 0.0353 | 0.0417 | 0.111 | 0.614 | 0.0453 | 0.591 | -0.00674 | -0.0746 | -0.0379 | 0.063
CATTCAC | -0.0526 | -0.0796 | -0.327 | -0.485 | 0.121 | -1.21 | -0.138 | -0.0311 | 0.00694 | -0.0119
ACCTGAT | -0.0365 | 0.184 | 0.0268 | 0.61 | 0.175 | 0.556 | -1.4 | 0.248 | 0.0961 | 0.105
TTCGGCT | -0.00398 | -0.0316 | -0.301 | -0.916 | -0.0888 | -0.668 | 0.00452 | -0.0875 | -0.0923 | -0.145
ACCGTGT | -0.168 | -0.0539 | -0.39 | -0.545 | 0.00504 | -1.04 | -0.0122 | -0.0604 | -0.00631 | -0.219
TTCAAGG | 0.168 | 0.215 | 0.705 | 1.69 | 0.157 | 1.97 | 0.227 | 0.258 | 0.0741 | 0.216
CACTGAG | 0.153 | 0.046 | -0.577 | -0.132 | 0.0932 | -0.924 | 0.128 | 0.0398 | 0.164 | 0.0724
GTCTTAA | -0.0309 | 0.126 | 0.378 | 0.87 | -0.0123 | 1.79 | 0.0689 | 0.122 | 0.0618 | 0.191
AGCTCTT | -0.591 | -0.0495 | -0.0264 | -0.701 | -0.00265 | 0.897 | -2.98 | 0.000951 | 0.0539 | -0.0896
CGCAACG | -0.0939 | -0.0541 | -0.784 | -0.451 | -0.0345 | -0.866 | 0.0479 | -0.132 | -0.0974 | -0.161
GGTCTCA | -0.0235 | 0.0936 | 0.303 | 0.905 | -0.176 | 1.73 | 0.0691 | 0.0146 | 0.0916 | 0.0904
AACCGCC | -0.0221 | -0.0292 | -0.2 | -0.753 | -0.0892 | -0.821 | -0.139 | -0.0578 | -0.11 | 0.0436
AGTGATT | 0.000558 | -0.108 | 0.0778 | 0.403 | 0.123 | 1.48 | -2.79 | 0.16 | 0.000941 | 0.102
TGGATCG | 0.203 | -0.0142 | -0.531 | -0.175 | -0.0608 | -0.915 | 0.216 | 0.0251 | 0.0717 | 0.0221
GCAATTA | -0.0277 | 0.0133 | 0.0761 | -0.51 | 0.16 | -0.116 | -0.129 | 0.0522 | 0.0214 | -0.0264
CACGTAG | -0.0933 | -0.18 | -0.718 | -0.701 | -0.166 | -1.52 | -0.0283 | -0.112 | -0.138 | -0.301
AGTGCTC | 0.00344 | -0.0217 | 0.0451 | -0.103 | -0.0554 | 0.321 | -0.115 | -0.093 | -0.0844 | 0.00593
